# Data published in the RNAGym collection of RNA variant scans (doi:10.7554/elife.90254).
# Read counts are not given, so values of variants with three or more changes are uncertain.
# B1: LINE1-mini (parent)
# chain: GGCAGAGCUCAACACAGCGUGGCAAAGUGGCUGUGGCUAGACUGCC
# Variants of: B1
# Experiment: self-cleavage, relative activity (ratio to wild type); higher = more cleavage; in vitro, sequencing; the parent is a self-cleaving ribozyme
row,Variant,self-cleavage
1,G29C U32G G33U,0.03
2,C15U G17U G22C G40C,0.02
3,A24U G40C G44C,0.06
4,G2C C10A G17C U20A C23U G30U,0
5,G5U A12C G22C A26G,0.02
6,G1A C8U G19U G40C,0.11
7,A16U C18G G36C A39G,0.02
8,G7C C15G G19A C23U,0.07
9,A4G C18A C37U C42U,0.01
10,C3U G17A U20A C23A,0.03
11,C3A C37A A39C,0.29
12,G7U C8G C15U C23U G33C,0.09
13,G5A C8G C10U A26G G27U C31G,0.05
14,C13G C18U U20G C37A U43C C46G,0.08
15,A12U G21U U38A A39G,0.01
16,C8G G19A C37G G40C C45G,0.01
17,C3U C10A A24G G27A,0.02
18,C13A G19A A24G,0.16
19,A4U G19C G35A A41U,0.02
20,G2U C15U G21U,0
21,G1A G2C C10A G30U G35U,0.01
22,G19A A26C C37U A41G C42A,0.03
23,G2A G19C A39G,0.1
24,G30U G35C C45A,0.04

row,Variant,self-cleavage
1,C8G A11G C15U G22A,0
2,U9G A26G U34A,0.01
3,G1A G30U U32A,0.07
4,C3G A14U U34A A39C,0.03
5,A4G C10A C23A C46A,0
6,G5C C13U A24C U38C U43G,0
7,A14C C15A G29C U34A A39G,0.01
8,A4C G33C U34G C45A,0.01
9,A6U G33U C42G,0.09
10,A4G C10A A25C,0.04
11,G2A C37G C46G,0.17
12,G7U A41U U43A,0.03
13,A6U G35A G36C U38C,0.03
14,C8A G27U U28G,0.07
15,C18U U28G G30U G33U C37A,0.22
16,G1U G19C A39G U43A,0.02
17,G7A U9C G19A,0
18,C3G G21A U34G,0.11
19,U28G C37U A39C,0.09
20,G22C G36U A39G,0
21,C23G G33C U43A,0.03
22,G19C G21C A39C,0.03
23,A4G U9C G44C,0.07
24,A24C U28A C31G,0.07

row,Variant,self-cleavage
1,A12G C18U A25G,0.01
2,C15A C18U U20C G29U U34C,0.02
3,A6G C15G G40C,0.01
4,C13U G19U C42G,0.02
5,A6U U9C G17U G35A,0.04
6,U9C U28C C42G,0.04
7,A14U G21U A41G,0.06
8,G1A C3G C18A G19A,0.49
9,C3U U28A G33A,0.05
10,C10A G29U G35U,0.02
11,C3U G17A G36U,0.08
12,C3U C13A G35A G36U,0.17
13,C8A A16C G29U G40U,0.08
14,A12U U32G G33A,0.01
15,G1U A12G C15A G30U G44A,0.01
16,G2C C10U U32G,0.02
17,G1U C15U A26U G27A G40U,0.02
18,A6C C23A C45U,0.38
19,A26G G27C G29A,0.3
20,G2C A24C G29A U34A,0.03
21,G1C C10G A14G,0.01
22,G33A U38G C42G,0.15
23,G5C C8A G19A G29A G35U,0.28
24,G2C C23A G36C U38A A39C,0.01

row,Variant,self-cleavage
1,C31A C37A C42U G44A,0.34
2,C8U C13G G22C G36U,0.13
3,C10U C13G C42A,0.01
4,C23A A24G C45U,0.32
5,G1U C10A C15A G30A,0.03
6,C8G G29C C42A,0.04
7,G21U G22U C23A G29U U38C C45U C46A,0.05
8,A4U G5A A39G,0.04
9,G7A C8A U9A,0.27
10,C3G G7C C8A U34G C42A,0.1
11,G2U C3G C10U G27A G29U,0.13
12,C23A G27U U28A U34C A41C,0.03
13,C23A C37U A41U C46A,0.06
14,C3A C10U C15G G40U,0.18
15,A14U A25U U34C,0.06
16,A14U G36C G40U C42U,0.07
17,G1C G2U G7U U38A,0.02
18,A4U A24U A25C G36A,0.04
19,C13G G21U C31G C42A C46A,0.03
20,G5C C10A C45G,0.01
21,A16C C18G G22A A24C A25U U38C,0.05
22,C10U A14U C23A U38A U43A C46U,0.02
23,G2C C15U U20C,0
24,G5C U9A A14G G27A C42U,0.18

row,Variant,self-cleavage
1,G1U G22C C23G,0.12
2,A25G G33U U34G G44U,0.03
3,A4U G7U G29A C42U,0.03
4,A6U C10A A24C G29A,0
5,C3A U9C A26C C37A,0.05
6,U9C C10A A12U G36A U38G,0.01
7,A12U G21U G30A,0.5
8,U20G U34C G35U G36A C42A,0.05
9,G7A U9G U34C U38A,0.02
10,C10A A12G G27U,0.04
11,C15A C23G A24C G33A,0.02
12,G5A G27A U38G,0.02
13,U9G A11G G21C U38A,0.01
14,C3A U9A U28C G33C G40C,0.29
15,G1C C10G C13U,0.01
16,G1U A11G G21C,0.02
17,A12G C13U U20A,0.02
18,C3U C10A A14C G19C A26C G29C,0.02
19,G1C C13A U38G,0.01
20,G2A A4C G21C C31A C45G,0.1
21,C10A A11C A12U G36U,0.09
22,U9G A11U A26G,0.01
23,G1A A11U A16U,0.1
24,C10U C23A C31U,1.15

row,Variant,self-cleavage
1,A4G C18A A24U C31A,0.07
2,A6C G19U U43A,0.03
3,C3A G7C C18A C37U,0.27
4,G1U C3A A24G A26G C46A,0.86
5,A14U C18A C46A,0.06
6,G5C A16U C37U,0.02
7,G7U G17A G27C C42A,0.07
8,C10G A14C G33U G36A,0.02
9,C10U G21U G33U A41C C42U,0.02
10,C10U A11U G30C,0.15
11,A4G C8A C13U G30C U38A A41G,0.22
12,G2C A24C A25C,0.03
13,G19C G21U A25U G30U C37A,0.07
14,C8A A16C U32G U43A,0
15,G1A C10A C18U G35U,0.03
16,G2C C3A G27C U32G U34G U38A C45G,0.01
17,C15A U20A G29U G36A,0.03
18,A6G A12C G36A C37U,0.15
19,A12C A14C A25U G27A G29C U32C G35U,0.02
20,G2U G22C G29A G35C C37A C45U,0.1
21,A6C C10A C13A G33U,0.01
22,C8U G30U C37U,0.09
23,G2C G21A G35C C46A,0.02
24,A14C U20G G27C G30C,0.03

row,Variant,self-cleavage
1,C10U G33C A39G,0.02
2,C15U A39U A41C U43A,0.02
3,A16U G17U G29C U38G,0.03
4,G1U C8G G27U C42A,0.01
5,C3U G7U G19U,0.14
6,C8A A12U G36A,0.02
7,U9G C15G C31G,0.07
8,G5A C8G G17U U32G G33C C46G,0.05
9,A11U G35A C37A U43C,0.02
10,C8A G17A C23G G27C A41C C45A,0.05
11,C3U G7U U38C,0.19
12,G1C G7C C23U G40U,0
13,G2U A4U G7A U43C,0.08
14,G7U G17U U28G,0.05
15,A6C A12U U20C,0.24
16,A11U G17C A24U,0.1
17,G5A A24U G35U,0.07
18,G7C G27U C37A C46A,0.04
19,G5U A12G U20A A26C C37A G40U,0.03
20,G21C G29C G33C,0.42
21,C8A U32C G44U,0.12
22,C15U G21U A24U C42U,0.4
23,A14G A25C G30U G40U,0.15
